Source: PMC6919601, “Identification of Plasmodium dipeptidyl aminopeptidase allosteric inhibitors by high throughput screening” (PLoS ONE, 2019)
Hit rate of the full screen: of about 110,000 compounds, about 230 (0.21%) showed an effect of 50% or more. This is one part of the list.

These compounds were tested against DPAP1 (Plasmodium falciparum, UniProt Q8IIJ9) (assay: primary screen, percent inhibition; read by cleavage of a fluorogenic dipeptide substrate; higher = more effect of the substance).
Parameters: species or system P. falciparum D10 trophozoite lysates; single well
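Note: 30 min substrate incubation versus DMSO and 10 µM JCP410 controls.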

Chain of DPAP1 (Q8IIJ9 whole entry, looked up): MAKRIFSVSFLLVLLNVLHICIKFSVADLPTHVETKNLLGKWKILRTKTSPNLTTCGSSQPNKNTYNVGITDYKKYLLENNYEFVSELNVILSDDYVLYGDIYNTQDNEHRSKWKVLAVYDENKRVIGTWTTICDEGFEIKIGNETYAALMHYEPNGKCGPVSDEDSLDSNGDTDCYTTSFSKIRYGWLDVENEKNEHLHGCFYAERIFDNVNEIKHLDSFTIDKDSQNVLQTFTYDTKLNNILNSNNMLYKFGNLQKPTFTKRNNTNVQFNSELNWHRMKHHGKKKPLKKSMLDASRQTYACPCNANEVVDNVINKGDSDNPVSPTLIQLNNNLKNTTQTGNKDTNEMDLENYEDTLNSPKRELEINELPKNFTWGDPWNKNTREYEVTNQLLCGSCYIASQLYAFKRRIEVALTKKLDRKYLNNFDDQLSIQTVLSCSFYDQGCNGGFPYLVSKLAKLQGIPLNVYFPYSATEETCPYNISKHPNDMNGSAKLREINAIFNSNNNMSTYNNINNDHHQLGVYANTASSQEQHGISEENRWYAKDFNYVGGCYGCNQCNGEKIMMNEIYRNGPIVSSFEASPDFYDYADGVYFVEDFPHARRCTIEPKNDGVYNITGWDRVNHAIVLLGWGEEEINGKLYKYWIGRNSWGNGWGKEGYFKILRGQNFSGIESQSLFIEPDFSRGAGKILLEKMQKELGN

Structure (SMILES)	% Inhibition @ 10 uM [%]
COc1ccc(C(=O)Nc2cc(C)ccc2O)cc1Cl	0.161
Cc1ccccc1N(CC(=O)N1CCN(c2ccccc2)CC1)S(C)(=O)=O	-0.641
CCC(C)NC(=O)CC(c1ccc(OC)cc1)n1cccc1 (centres unmarked)	0.953
Cc1cc(Br)cnc1O	6.73
COc1ccc(N2C(=O)CC(Sc3nc(C)cc(C)n3)C2=O)cc1 (centres unmarked)	-2.39
COc1ccccc1CNC(=O)Nc1cccc(Cl)c1	5.42
COCC(C)NCc1cccc2ccccc12 (centres unmarked)	-4.04
CCN(Cc1ccccc1)C(=O)c1ccc(CS(=O)c2ccc(Br)cc2)o1 (centres unmarked)	3.36
CCOc1ccc(CCNC(=O)CCC(=O)N2Cc3ccccc3Oc3ncccc32)cc1OCC	3.53
O=C(O)c1ccc(Br)c(S(=O)(=O)N2CCCC2)c1	-0.856
COc1ccc(C(=O)NCC2CCCO2)cc1 (centres unmarked)	-6.05
COc1ccc(-c2cc(C(=O)O)c3cc(C)ccc3n2)cc1	1.84
Cc1sc(NC(=O)c2ccco2)c(C(c2ccccc2)N2CCOCC2)c1C (centres unmarked)	-6.64
COc1ccc(OC)c(/C=C2\SC(N3CCOCC3)=NC2=O)c1	0.147
O=C(O)CCCN1C(=O)C2C3CC(C2C1=O)C1C(c2cccs2)c2sc(O)nc2SC31 (centres unmarked)	-1.96
Cc1nn2c(-c3ccco3)nnc2c2ccccc12	-1.35
CCN(CCO)Cc1csc2c(F)c(F)c(F)c(F)c12	-2.53
CCC(C)Oc1ccccc1C1CC(=O)NC2=C1C(=O)CCC2 (centres unmarked)	1.97
COc1cccc(C2C(=O)N(C3CCC(C)CC3)CC(=O)N2Cc2ccccc2Cl)c1OC (centres unmarked)	-5.92
Cc1nn(CC(=O)Nc2ccc(C(N)=O)cc2)c(C)c1Br	2.82
Cc1ccc(C(=O)N/C(=C\c2cccs2)C(=O)NCc2ccc3c(c2)OCO3)cc1C	-0.864
CC(C)Cc1c(C#N)c(N)nc2sc(C#N)c(N)c12	5.2
COC(=O)c1cccc(-n2c(CCC(=O)O)ccc2-c2ccc(C)cc2)c1	7.04
Cc1ccc(S(=O)(=O)Nc2ccc(S(=O)(=O)Nc3ccc(C)cc3C)cc2)cc1	-3.95
Cc1nn(C(C)C(=O)NCCCOC(C)C)c(=O)c2nn(-c3ccccc3)c(C)c12 (centres unmarked)	2.82
CSc1ccc(CN(CCO)CCO)cc1	5.01

Structure (SMILES)	% Inhibition @ 10 uM [%]
Cc1nn(Cc2noc(C(=O)NCc3nc4ccccc4[nH]3)n2)c(C)c1Br	0.895
CN1CCC(N2CCN(c3ccccc3F)CC2)CC1	-0.0953
COc1ccccc1Oc1ccc(S(=O)(=O)Nc2cccc(C(C)=O)c2)cc1	67.2
O=C(CCCCC(=O)Nc1ccc(F)cc1F)Nc1ccc(F)cc1F	-2.83
Cc1ccc(C(=O)N2CCc3ccccc32)o1	0.52
Cc1cc(C)n(-c2cccc(F)c2)c(=O)c1C(=O)O	-0.0619
Cc1nc2cc(C(=O)N3CCOCC3)ccc2n1-c1ccc(Br)cc1	-2.17
O=C(NC(=S)N1CCCCCC1)C12CC3CC(CC(C3)C1)C2	-4.96
CCOC(=O)c1cc(-c2ccc(-c3ccccc3)cc2)nc2ccc(Br)cc12	1.38
Cc1ccc2onc(CNC(=O)NC(C)CCc3ccccc3)c2c1 (centres unmarked)	2.99
CCN(CC)S(=O)(=O)c1ccc(NC(=O)c2cccc(NC(=O)C(C)C)c2)cc1	8.11
CN(CCC#N)S(=O)(=O)c1cccc2nsnc12	3.32
CCN1CCN(C(=O)Cn2ncc3ccsc3c2=O)CC1	3.59
CN(C)CCNC(=O)c1ccc(Cn2c(SCc3ccccc3F)nc3ccncc32)cc1	10.2
CCOC(=O)c1[nH]c2ccccc2c1NC(=O)c1ccc(-c2ccccc2)cc1	-2.74
COc1cc(/C=C2\C(=O)ON=C2C)ccc1OC(C)C	5.12
N#Cc1ccc(-c2nc3cc(Cl)c(Cl)cc3[nH]2)cc1	0.58
Cc1cccc(NC(=O)c2cccs2)c1C	-1.28
CCCCN1C(=O)c2[nH]nc(-c3ccccc3O)c2C1c1ccc(C)cc1 (centres unmarked)	-3.34
Cc1cccc(-n2nnc(-c3nc(-c4cccnc4)no3)c2N)c1	-0.485
COc1cc(C(=O)N=C2C(C)=CC(=O)C=C2C)cc(OC)c1OC	1.67
CC(C)c1[nH]nc2c1C(c1ccco1)C(C#N)=C(N)O2 (centres unmarked)	-3.16
O=C(CCCCn1c(=O)[nH]c2ccsc2c1=O)NCc1cccnc1	-4.06
CCCCOc1ccc(C(C)NC(=O)CCS(=O)(=O)Cc2ccc(Cl)cc2)cc1 (centres unmarked)	3.24
CCOc1ccc(CCNC(=O)CCc2c(C)nc3ncnn3c2O)cc1	-3.33
Cc1ccc(C)c(N(CN2C(=O)c3ccccc3C2=O)C(=O)C(F)(F)F)c1	-2.98

Structure (SMILES)	% Inhibition @ 10 uM [%]
O=C(c1ccccc1F)N1CCNCC1	1.13
CCOc1ccc(-c2nnc(SCC(=O)N3CCCCC3CC)o2)cc1 (centres unmarked)	1.86
Cc1nc(CNS(=O)(=O)c2ccccc2)cs1	-4.24
CC1CC(C)CN(CCCNC(=O)C2CCN(S(=O)(=O)c3cccc4nsnc34)CC2)C1 (centres unmarked)	3.53
Cc1ccsc1CCNS(=O)(=O)c1ccc(CN2C(=O)c3cccnc3C2=O)cc1	0.776
Cc1ccc2c(C)nc(/N=C(\N)NS(=O)(=O)c3ccccc3)nc2c1	3.36
Cc1nn(C)c(C)c1NC(=O)c1cnn2c(C(F)F)cc(-c3ccccc3)nc12	-2.75
Cc1oncc1C(=O)Nc1ccc(Oc2ccccc2)cc1	-2.32
COc1cccc(C2C(C(=O)c3ccc(Cl)cc3)=C(O)C(=O)N2Cc2ccco2)c1 (centres unmarked)	-4.39
COc1ccc(N2C(N)=C(C#N)C(c3ccccc3)C3=C2CCCC3=O)cc1 (centres unmarked)	3.72
c1ccc(-c2cc(NCCCn3ccnc3)n3c(n2)nc2ccccc23)cc1	-4.67
COCc1[nH]nc2c1C(c1cccnc1)C(C#N)=C(N)O2 (centres unmarked)	2.08
COCC(C)NC(=O)c1cc(-c2ccc(O)cc2)on1 (centres unmarked)	-1.28
CCOC(=O)C1=C(CC)OC(N)=C(C#N)C1c1cccc(Cl)c1Cl (centres unmarked)	10.5
CCOc1ccc(CNC(=O)c2cc3c(s2)-c2c(C)cccc2OC3)cc1	-1.37
NC(=O)c1c(NC(=O)COc2ccccc2)sc2c1CCCC2	2.67
O=C(NCC1CCCO1)c1cc2c(s1)CS(=O)(=O)C2 (centres unmarked)	-2.01
O=C(COc1ccccc1)Nc1cccc(C(F)(F)F)c1	1.44
C(=C\C1Nc2cccc3cccc(c23)N1)/c1ccco1	-2.37
CC(=O)NC1=NN(C(C)=O)C(C)(CCS(=O)(=O)c2ccc(Br)cc2)S1 (centres unmarked)	-1.42
Oc1c2c(nc3c(-c4ccccc4)c(Cc4ccccc4)nn13)CCCC2	3.32
COc1ccc(C2CC(=O)C(/C=N/c3ccccc3-c3ccccc3)=C(O)C2)cc1 (centres unmarked)	-2.64
Cc1ccc(-n2c(C)cc(/C=C3/SC(=S)NC3=O)c2C)cc1	0.392
CCOc1ccc(N(C(C)=O)C2=NC(=O)/C(=C/c3ccccc3O)S2)cc1	3.65
O=C(c1ccc([N+](=O)[O-])cc1Cl)N1CCOCC1	1.91
Cc1ccc(OCC(=O)Nc2cccnc2)cc1C	-4.7

Structure (SMILES)	% Inhibition @ 10 uM [%]
COc1ccccc1CN1CCN(Cc2ccc(C(F)(F)F)cc2)CC1	5.55
Cc1ccc(-c2cn3nc(N4CCC(C(=O)NCCc5c[nH]c6ccccc56)CC4)sc3n2)cc1	-0.878
O=C1C2ON(c3ccccc3)C(c3ccco3)C2C(=O)N1Cc1ccccc1 (centres unmarked)	1.37
Cc1cc(C)cc(OCc2ccc(C(=O)N3N=C(C(F)F)CC3(O)C(F)F)o2)c1 (centres unmarked)	3.04
N#Cc1ccc(NC(=O)/C=C\C(=O)O)cc1	-6.22
CC(=O)c1c(C)n(CCOc2ccc(Cl)cc2C)c2ccc(O)cc12	-1.24
O=c1c(Cc2ccccc2)c(O)cc(-c2ccco2)n1-c1ccccc1	-3.77
COc1ccc(NC(=O)c2c(Cl)cc(Cl)nc2Cl)cc1	-5.29
CC(C)(c1ccc(O)cc1)c1ccc(Oc2ccc([N+](=O)[O-])cc2)cc1	2.17
CC(C)c1ccc(C=C2C(=O)N(C)C(=O)N(C)C2=O)cc1	1.13
CCOc1ccc2nc(NC(=O)CN(C)S(=O)(=O)c3cccc4nsnc34)sc2c1	0.317
CCCOc1ccc(N2CC(C(=O)Nc3ccccn3)CC2=O)cc1 (centres unmarked)	0.316
O=C(Nc1ccc(S(=O)(=O)N2CCOCC2)cc1)c1ccco1	0.727
O=C(Cn1sc2cc(F)ccc2c1=O)NCc1ccccc1	-9.9
NC(=O)C1CCN(Cc2ccccc2Br)CC1	-0.0494
CCC1CCCCN1C(=O)Cn1c(=O)n(Cc2ccccc2)c(=O)c2c1c1cc(C)ccc1n2C (centres unmarked)	-3.19
Cc1ccc2c(c1)cc1c(=O)n(CC(=O)N3CCN(c4ccccn4)CC3)nc(C)n12	4.84
CCOc1cc(C2C3=C(O)CC(C)(C)CC3=NC(C)=C2C(=O)Nc2ccccc2OC)ccc1O (centres unmarked)	-6.08
COc1ccc(Cl)cc1N(CC(=O)Nc1ccccc1C(C)C)S(C)(=O)=O	15.2
CCCCSCCCNC(=O)C1CCCN(Cc2nc(-c3ccc(CC)cc3)oc2C)C1 (centres unmarked)	0.689
O=C(O)C1CCCN(S(=O)(=O)Cc2ccccc2)C1 (centres unmarked)	2.05
CCCN(CCO)Cc1c(C)n(C)n(-c2ccccc2)c1=O	-3.8
O=S(=O)(c1ccc(-c2ccc(O)nn2)o1)N1CCC(Cc2ccccc2)CC1	-0.193
